# PubChem BioAssay (NCATS)
# This list was built around the results that the source calls inconclusive (neither active nor inactive); the mix of calls is not that of the screen. For some of these results: Potencies of inconclusive entries are doubtful fits and often do not repeat. The source made the active and inactive calls. Unless noted, calls follow the shape of the dose curve; as a rule, active = well fitted curve in either direction with a large enough effect (not every such curve was filed as active); inconclusive = small, poorly fitted or top-dose-only effect, or another doubt; inactive = flat fitted curve, though single readings scatter.
# Columns and labels:
# [1] = AP1 Signaling Pathway (AID 357); conditions: ME-180 AP-1-bla reporter, EGF-induced, beta-lactamase ratio, 5 h; at 17.2 µM (top of the series) unless noted; also: top concentration of the series differs between compounds; % is scaled to controls: 0 for no effect and ±100 for the full control effect
# How it was run: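 Titration-series screen for positive or negative modulators of EC50 EGF-induced signaling in ME-180 cells carrying an AP-1-driven beta-lactamase reporter. After 5 hours at 37 degrees Celsius, CCF4 460nm/530nm emission ratio gave %Activity; AC50 values derived.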
# [2] = NFAT Signaling Pathway (AID 444); conditions: Jurkat NFAT-bla M1, carbachol, beta-lactamase ratio, 5 h; at 17.2 µM (top of the series) unless noted;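 also: carbachol stimulus at about its EC50 of 1 µM final; % is scaled to controls: 0 for no effect and ±100 for the full control effect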
# How it was run: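 Jurkat cells carrying an NFAT-driven β-lactamase reporter and co-transfected muscarinic M1 receptor were treated with compound plus carbachol (1 uM final, an EC50 level) for 5 h at 37 °C. CCF4 loading followed for 1 h at RT; 460/530 nm ratio gave %activity.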
# [3] = qHTS Assay for Identification of Small Molecule Agonists for Hypoxia Response Element Signaling Pathway (AID 914; active = well fitted activation curve with a large enough effect in the signal ratio, with a control signal flat, not every such curve was filed as active; inconclusive = small, poorly fitted or top-dose-only effect, or effect the other way, or a change in a side signal; the % refers to the signal ratio; also: potency is read from the fitted curve at half-maximal effect; as to activation: top concentration of the series differs between compounds; % of control where 0% means no effect); conditions: ME-180 (cervical carcinoma) HRE-bla reporter, beta-lactamase ratio, CoCl2, 17 h; activation: stronger effect = higher value
# How it was run: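 qHTS titration; ME-180 HRE-bla cells; EC50 CoCl2 co-treatment, 17 h at 37 degrees Celsius; CCF4 dye, ex 405nm, em 460nm and 530nm; %Activity from ratio; AC50.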
# [4] = molecular target: Glucocorticoid receptor (Homo sapiens) (UniProt P04150); test: GR-GFP Redistribution (AID 450;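 active = compounds whose dose series gives a full or clear partial fitted curve of increased nuclear translocation; inconclusive = weak partial curve or effect only at the top dose; inactive = no dose-dependent translocation response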; also: potency is read from the fitted curve at half-maximal effect); conditions: U2OS GR-GFP nuclear translocation, laser cytometry, 2 h
# Chain of UniProt P04150 (P04150 whole entry, looked up): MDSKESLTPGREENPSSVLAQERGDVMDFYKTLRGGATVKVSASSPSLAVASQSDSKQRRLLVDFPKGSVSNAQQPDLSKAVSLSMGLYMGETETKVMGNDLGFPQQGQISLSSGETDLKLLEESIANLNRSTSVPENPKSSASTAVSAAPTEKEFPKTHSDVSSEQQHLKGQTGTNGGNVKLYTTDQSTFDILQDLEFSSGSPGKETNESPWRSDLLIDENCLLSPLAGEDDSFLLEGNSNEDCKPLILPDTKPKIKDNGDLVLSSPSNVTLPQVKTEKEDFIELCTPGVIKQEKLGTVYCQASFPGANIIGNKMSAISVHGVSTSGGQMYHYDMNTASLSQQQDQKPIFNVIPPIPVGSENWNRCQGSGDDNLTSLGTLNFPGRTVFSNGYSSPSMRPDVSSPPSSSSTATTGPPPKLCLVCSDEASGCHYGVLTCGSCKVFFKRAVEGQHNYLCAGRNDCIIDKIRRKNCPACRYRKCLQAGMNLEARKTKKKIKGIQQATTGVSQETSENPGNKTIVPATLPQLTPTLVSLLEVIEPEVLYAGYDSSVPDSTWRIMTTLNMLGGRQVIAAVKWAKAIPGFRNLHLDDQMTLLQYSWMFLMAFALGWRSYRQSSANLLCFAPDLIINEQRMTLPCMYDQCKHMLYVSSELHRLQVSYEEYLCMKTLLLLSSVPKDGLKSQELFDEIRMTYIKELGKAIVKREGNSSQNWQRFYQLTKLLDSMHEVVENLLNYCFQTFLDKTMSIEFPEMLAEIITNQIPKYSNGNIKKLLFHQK
# Tags tell the direction and shape of the fitted curve or compound fluorescence and quenching.
Structure (SMILES),"activity change, negative = inhibition [1]","activity change, negative = inhibition [2]",Potency [3],activation [3],Potency [4]
N#CC1=C(SCC(=O)c2ccccc2)NC2=C(C(=O)CCC2)C1c1ccco1 (centres undefined),inconclusive: -50.1% [inhibitor],inconclusive: -37.5% [inhibitor],active: 10 µM,–,–
CC(C)Cc1nc(N2CCN(C(=O)c3ccco3)CC2)c(C#N)c2c1CCC2,inconclusive: -55.2% [inhibitor],inconclusive: -32.6% [inhibitor],"inconclusive: 5.01 µM [activator, partial curve]",–,–
CCCSc1nnc(NC(=O)Nc2ccccc2)s1,inconclusive: -35.5% [inhibitor],inactive: -25.9%,–,inconclusive: -26.3%,–
OCCN(CCO)c1ncnc2c1sc1nc(N3CCOCC3)c3c(c12)CCCC3,inactive: -27.6%,inconclusive: -67.8% [inhibitor],"inconclusive: 3.16 µM [inhibitor, partial curve]",–,–
CS(=O)(=O)Nc1cccc(-c2ccc3ncnc(Nc4ccccc4)c3c2)c1,inconclusive: -119% [inhibitor] [at 7.69 µM],inconclusive: 83% [activator] [at 7.69 µM],"inconclusive: 2 µM [inhibitor, partial curve]",–,–
Cc1ccccc1-n1c(=O)/c(=C\c2ccco2)s/c1=C(/C#N)C(=O)Nc1ccccc1,inconclusive: -47.1% [inhibitor],inconclusive: -79.2% [inhibitor],"inconclusive: 5.01 µM [inhibitor, partial curve]",–,–
N#Cc1c(N2CCCCC2)nc(N2CCCCC2)c2c1CCN(Cc1ccccc1)C2,inconclusive: 29.2% [activator],inactive: -13%,"inconclusive: 12.6 µM [inhibitor, single point]",–,–
CN1Cc2c(N3CCOCC3)nc(SCc3ccccc3)c(C#N)c2CC1(C)C,inconclusive: -41.4% [inhibitor],inconclusive: -37.7% [inhibitor],"inconclusive: 0.199 µM [inhibitor, full curve]",–,–
CCN(CC)CCn1c(O)c(N=O)c2ccccc21,active: 90.5% [activator],inactive: -17.1%,"inconclusive: 2.51 µM [inhibitor, full curve]",–,–
N#Cc1ccc(-c2ccc(OCC(O)Cn3nnc4ccccc43)cc2)cc1 (centres undefined),inconclusive: -49.3% [inhibitor],inconclusive: -36.3% [inhibitor],"inconclusive: 3.98 µM [inhibitor, partial curve]",–,–
CCN(CC)c1ccc2c(C)c(-c3ccc(N)cc3)c(=O)oc2c1,inconclusive: -47.8% [inhibitor],inconclusive: 20.2% [activator],"inconclusive: 12.6 µM [activator, single point]",–,–
Cc1cccc(CNc2ncnc3ccc(-c4cccnc4)cc23)c1,–,–,–,–,inconclusive: 41.7 µM [single point]
